Test results: the GPR68 mutational scans of Howard et al. (2025)

B1: GPR68, Q15743 (parent)
chain: MGNITADNSSMSCTIDHTIHQTLAPVVYVTVLVVGFPANCLSLYFGYLQIKARNELGVYLCNLTVADLFYICSLPFWLQYVLQHDNWSHGDLSCQVCGILLYENIYISVGFLCCISVDRYLAVAHPFRFHQFRTLKAAVGVSVVIWAKELLTSIYFLMHEEVIEDENQHRVCFEHYPIQAWQRAINYYRFLVGFLFPICLLLASYQGILRAVRRSHGTQKSRKDQIQRLVLSTVVIFLACFLPYHVLLLVRSVWEASCDFAKGVFNAYHFSLLLTSFNCVADPVLYCFVSETTHRDLARLRGACLAFLTCSRTGRAREAYPLGAPEASGKSGAQGEEPELLTKLHPAFQTPNSPGSGGFPTGRLA

How the values were obtained:
[1] = variants of: B1; experiment: cAMP reporter score (Enrich2 score, wild type = 0); higher = more signal; HEK293T, FACS bins
[2] = variants of: B1; experiment: surface expression score (Enrich2 score, wild type = 0); higher = more signal; HEK293T, FACS bins

Variant | cAMP reporter score ([1]; pH 5.5) | cAMP reporter score ([1]; pH 6) | cAMP reporter score ([1]; pH 6, modulator: ogerin) | surface expression score [2] | cAMP reporter score ([1]; pH 6.5, modulator: ogerin)
MGNITADNSSMSCTIDHTIHQTLAPVVYVTVLVVGFPANCLSLYFGYLQIKARNELGVYLCNLTVADLFYICSLPFWLQYVLQHDNWSHGDLSCQVCGILLYENIYISVGFLCCISVDRYLAVAHPFRFHQFRTLKAAVGVSVVIWAKELLTSIYFLMHEEVIEDENQHRVCFEHYPIQAWQRAINYYRFLVGFLFPICLLLASYQGILRAVRRSHGTQKSRKDQIQRLVLSTVVIFLACFLPYHVLLLVRSVWEASCDFAKGVFNAYHFSLLLTSFNCVADPVLYCFVSETTHRDLARLRGACLAFLTCSRTGRAREATPLGAPEASGKSGAQGEEPELLTKLHPAFQTPNSPGSGGFPTGRLA [Y320T] | 1.98 | 0.517 | 0.626 | 0.714 | 
MGNITADNSSMSCTIDHTIHQTLAPVVYVTVLVVGFPANCLSLYFGYLQIKARNELGVYLCNLTVADLFYICSLPFWLQYVLQHDNWSHGDLSCQVCGILLYENIYISVGFLCCISVDRYLAVAHPFRFHQFRTLKAAVGVSVVIWAKELLTSIYFLMHEEVIEDENQHRVCFEHYPIQAWQRAINYYRFLVGFLFPICLLLASYQGILRAVRRSHGTQKSRKDQIQRLVLSTVVIFLACFLPYHVLLLVRSVWEASCDFAKGVFNAYHFSLLLTSFNCVADPVLYCFVSETTHRDLARLRGACLAFLTCSRTGRAREAQPLGAPEASGKSGAQGEEPELLTKLHPAFQTPNSPGSGGFPTGRLA [Y320Q] | 0.515 |  | 1.11 | 1.87 | 0.398
MGNITADNSSMSCTIDHTIHQTLAPVVYVTVLVVGFPANCLSLYFGYLQIKARNELGVYLCNLTVADLFYICSLPFWLQYVLQHDNWSHGDLSCQVCGILLYENIYISVGFLCCISVDRYLAVAHPFRFHQFRTLKAAVGVSVVIWAKELLTSIYFLMHEEVIEDENQHRVCFEHYPIQAWQRAINYYRFLVGFLFPICLLLASYQGILRAVRRSHGTQKSRKDQIQRLVLSTVVIFLACFLPYHVLLLVRSVWEASCDFAKGVFNAYHFSLLLTSFNCVADPVLYCFVSETTHRDLARLRGACLAFLTCSRTGRAREAPPLGAPEASGKSGAQGEEPELLTKLHPAFQTPNSPGSGGFPTGRLA [Y320P] | 0.169 | 0.095 | -0.039 | 1.41 | -0.096
MGNITADNSSMSCTIDHTIHQTLAPVVYVTVLVVGFPANCLSLYFGYLQIKARNELGVYLCNLTVADLFYICSLPFWLQYVLQHDNWSHGDLSCQVCGILLYENIYISVGFLCCISVDRYLAVAHPFRFHQFRTLKAAVGVSVVIWAKELLTSIYFLMHEEVIEDENQHRVCFEHYPIQAWQRAINYYRFLVGFLFPICLLLASYQGILRAVRRSHGTQKSRKDQIQRLVLSTVVIFLACFLPYHVLLLVRSVWEASCDFAKGVFNAYHFSLLLTSFNCVADPVLYCFVSETTHRDLARLRGACLAFLTCSRTGRAREARPLGAPEASGKSGAQGEEPELLTKLHPAFQTPNSPGSGGFPTGRLA [Y320R] | 0.565 |  |  |  | -0.433
MGNITADNSSMSCTIDHTIHQTLAPVVYVTVLVVGFPANCLSLYFGYLQIKARNELGVYLCNLTVADLFYICSLPFWLQYVLQHDNWSHGDLSCQVCGILLYENIYISVGFLCCISVDRYLAVAHPFRFHQFRTLKAAVGVSVVIWAKELLTSIYFLMHEEVIEDENQHRVCFEHYPIQAWQRAINYYRFLVGFLFPICLLLASYQGILRAVRRSHGTQKSRKDQIQRLVLSTVVIFLACFLPYHVLLLVRSVWEASCDFAKGVFNAYHFSLLLTSFNCVADPVLYCFVSETTHRDLARLRGACLAFLTCSRTGRAREASPLGAPEASGKSGAQGEEPELLTKLHPAFQTPNSPGSGGFPTGRLA [Y320S] | -0.281 | -0.293 | 0.112 | 0.048 | -0.091

Scores whose standard error is large were omitted. Two further conditions of the source, in which the scores hardly spread, are not listed. Read del as a deletion of the residues named and ins as an insertion between two positions. For some assays here: How much ogerin was present is not stated here.
